Reference: PubChem BioAssay AID1345083 (National Center for Advancing Translational Sciences (NCATS), 2018)
Hit rate of the full screen: of about 94,000 compounds, about 6,200 (6.6%) were called active. This list was built around the results that the source calls inconclusive (neither active nor inactive); the mix of calls is not that of the screen. The call rests on the fitted dose curve; in most records, active means well fitted inhibition curve with a large enough effect; inconclusive means small, poorly fitted or top-dose-only effect; inactive means flat fitted curve, though single readings scatter. Potencies of inconclusive entries are doubtful fits and often do not repeat.

Assay: Cytotoxic Profiling in HEK 293 Cell Line of Diverse Libraries Using Quantitative High-Throughput Screening; further: nearly all actives have a fitted effect of over 60% in size
Conditions: HEK 293 viability, ATP luminescence (CellTiter-Glo), 48-72 h; activity change, negative = cytotoxicity: at 115 µM (top of the series) unless noted; series mostly up to 115 µM
Method in brief: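 Cells seeded first (HEK 293, 250 cells/well), then compound added by pintool. Incubation ran 48 or 72 hr at 37 degree Celsius. CellTiter-Glo was added and luminescence imaged after 10 min at room temperature.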
On the % scale 0 is the no-effect control and ±100 the full control effect; potency means the concentration at half of the fitted maximal effect; tags describe the fitted curve by direction and shape.

| Compound | Potency | activity change, negative = cytotoxicity | outcome |
| --- | --- | --- | --- |
| O=C(NC1C[C@H]2CC[C@@H](C1)N2C(=O)CCC1CCCC1)c1ccncc1 (some centres not stated) | inconclusive: 89.1 µM [inhibitor, single point] |  |  |
| O=C(c1ccc2oc(-c3cccc(F)c3)nc2c1)N1CCCCC1CCO (configuration not stated) | inconclusive: 50.1 µM [inhibitor, partial curve, poor fit] |  |  |
| CN(Cc1ccccc1)C(=O)C1COC2(CCN(C(=O)CC(C)(C)C)CC2)N1C(=O)c1ccccc1 (configuration not stated) | inconclusive: 100 µM [inhibitor, single point] |  |  |
| CN1CCC(Cn2ccc3c(N4CCOCC4)nc(-c4cccc(N5CCOCC5)c4)cc32)CC1 | inconclusive: 50.1 µM [inhibitor, partial curve, poor fit] |  |  |
| c1ccc(CN2CC[C@H](c3nnc(Cc4c[nH]c5ccccc45)o3)C2)cc1 | inconclusive: 126 µM [inhibitor, partial curve, poor fit] |  |  |
| COc1cccc(C(=O)N2CCC(c3nn(-c4ccc(Cl)cc4)c(=O)[nH]3)CC2)c1 | inconclusive: 89.1 µM [inhibitor, single point] |  |  |
| O=C(NCc1ccc(F)cc1F)C1CCCN(c2cn[nH]c(=O)c2)C1 (configuration not stated) |  | inactive: -7.55% |  |
| O=C(CNC(=O)c1cccc(-c2ccc(C(F)(F)F)cc2)c1)NCc1ccccc1 | inconclusive: 11.2 µM [inhibitor, full curve] |  |  |
| Cn1ncc2c(C(=O)N3CCC(c4ccccc4)CC3)cc(-c3ccccc3F)nc21 | inconclusive: 56.2 µM [inhibitor, partial curve, poor fit] |  |  |
| O=C(CCn1ccn2nc3c(c2c1=O)CCCC3)Nc1ccc(Cl)c(C(F)(F)F)c1 | active: 44.7 µM |  |  |
| CCOC(=O)C1=CN(CC(=O)Nc2cc(Cl)ccc2C)S(=O)(=O)N=C1C | inconclusive: 89.1 µM [inhibitor, single point] |  |  |
| O=C(Nc1ccc(F)c(F)c1)c1cc2n(n1)CC(c1ccc(Cl)cc1)OC2 (configuration not stated) | inconclusive: 50.1 µM [inhibitor, partial curve, poor fit] |  |  |
| O=C(NCc1cccc(Cl)c1)c1nc2sccn2c1-c1ccccc1 | inconclusive: 89.1 µM [inhibitor, single point] |  |  |
| CCN1CCN(CCNC(=O)c2cc(-c3ccc(Cl)cc3)cn2CC)CC1 | active: 28.2 µM |  |  |
| COc1ccc(CNC(=O)[C@@H]2CCC[C@@H](NC(=O)c3nc4ccccc4s3)CN(C)C(=O)C2)cc1 | inconclusive: 50.1 µM [inhibitor, partial curve, poor fit] |  |  |
| O=C(O)c1ccc(CN2C[C@H](O)C[C@H]2c2nc(-c3ccc4c(c3)OCO4)no2)cc1 |  | inactive: -0.805% [at 172 µM] |  |
| COc1ccc(-c2nc3cnccn3c2NCCC(=O)Nc2ccc(C)cc2C)cc1 | inconclusive: 50.1 µM [inhibitor, partial curve, poor fit] |  |  |
| COc1ccc(N2CC(c3noc(-c4ccc(OC(F)(F)F)cc4)n3)CC2=O)cc1 (configuration not stated) | inconclusive: 89.1 µM [inhibitor, single point] |  |  |
| O=C(Cc1c[nH]c2ncc(-c3cccc(CO)c3)cc12)NCc1cccnc1 |  | inactive: -21.8% [at 172 µM] |  |
| C=CCOc1c(OC)ccc2c1CN(C1CC1)C(=O)CCN2CC(O)COc1ccc(OC)cc1 (configuration not stated) | inconclusive: 63.1 µM [inhibitor, partial curve, poor fit] |  |  |
| O=C(N[C@@H]1CCC[C@@H]1C(=O)N1CCN(c2ccccc2F)CC1)c1ccncc1 | inconclusive: 89.1 µM [inhibitor, single point] |  |  |

| Compound | Potency | activity change, negative = cytotoxicity | outcome |
| --- | --- | --- | --- |
| CCCC(=O)N1Cc2ccccc2CC2(CCCN2CCC)C1 (configuration not stated) | inconclusive: 56.2 µM [inhibitor, partial curve, poor fit] |  |  |
| COc1ccc2oc(CNC(=O)c3cc(CC(C)C)nn3C)nc2c1 | inconclusive: 50.1 µM [inhibitor, partial curve, poor fit] |  |  |
| CN1c2cc(C(=O)N3CCN(c4ccccc4)CC3)ccc2C(=O)N2CCCCC21 (configuration not stated) | inconclusive: 79.4 µM [inhibitor, partial curve] |  |  |
| Cc1cc(C)n(-c2ccc(F)cc2CN2CCCC(CO)(Cc3ccccc3)C2)n1 (configuration not stated) | inconclusive: 35.5 µM [inhibitor, partial curve, poor fit] |  |  |
| Cc1oc(-c2cccc(C(F)(F)F)c2)nc1CN(C)Cc1cnn(C)c1 | inconclusive: 100 µM [inhibitor, partial curve, poor fit] |  |  |
| OC(c1nc(Nc2ccc(Cl)c(C(F)(F)F)c2)n[nH]1)C1CC1 (configuration not stated) | active: 56.2 µM |  |  |
| COc1ccc(CNC(=O)N2c3ccccc3CC2c2nc(C(C)C)no2)cc1 (configuration not stated) | inconclusive: 56.2 µM [inhibitor, partial curve, poor fit] |  |  |
| Cc1cccc(C(=O)N2CCCC(c3nn(-c4ccc(F)cc4)c(=O)[nH]3)C2)c1 (configuration not stated) | inconclusive: 79.4 µM [inhibitor, partial curve, poor fit] |  |  |
| Cc1ccc(-c2cccc(CN3CCN(c4ccc(Cl)nn4)C(=O)C3)c2)c(C)c1 | inconclusive: 39.8 µM [inhibitor, partial curve] |  |  |
| COc1ccccc1-c1cc(C(=O)NCCc2ccc(Cl)cc2)nc2c1cnn2C | inconclusive: 79.4 µM [inhibitor, partial curve, poor fit] |  |  |
| Cn1c(=O)c2ccnn2c2ccc(C(=O)NCC3CCN(Cc4cccc(F)c4)CC3)cc21 | active: 79.4 µM |  |  |
| CC(=O)N1CCC(Oc2ccc(Cl)cc2C(=O)NCCC2=CCCCC2)CC1 | inconclusive: 50.1 µM [inhibitor, partial curve, poor fit] |  |  |
| COc1cccc(CNC(=O)Cn2c(-c3ccccc3)nc(C)cc2=O)c1 | inconclusive: 39.8 µM [inhibitor, full curve, poor fit] |  |  |
| COc1ccccc1NC(=O)Cn1c(=O)n(-c2ccc(F)cc2)c(=O)c2c1cc(C)n2C | active: 44.7 µM |  |  |
| CCOCCNC(=O)C1CCN(c2nccc(Nc3ccc(C)cc3)n2)CC1 | inconclusive: 79.4 µM [inhibitor, partial curve, poor fit] |  |  |
| CC(C)Cc1nc2nccc(-c3cccs3)n2n1 | inconclusive: 56.2 µM [inhibitor, partial curve, poor fit] |  |  |
| CN(Cc1ccccc1C(F)(F)F)C(=O)c1ccc(F)cc1 | inconclusive: 126 µM [inhibitor, single point] |  |  |
| O=C(NCCc1ccncc1)c1cccnc1OC1CCNCC1 |  | inactive: -2.88% |  |
| C[C@H]1CCCN1C(=O)c1nnc(CNc2ccc(OC(F)(F)F)cc2)n1-c1ccccc1 | inconclusive: 56.2 µM [inhibitor, partial curve, poor fit] |  |  |
| COc1ccc(C(=O)N2CCC3(C2)C(=NC2CCCCC2)NC(=O)N3c2cc(F)cc(F)c2)cc1 (configuration not stated) |  | inactive: -18.5% |  |
| COc1ccc(-c2cc(C(=O)NCC3CC3)c3c(C4CCCN4)noc3n2)cc1 (configuration not stated) | inconclusive: 50.1 µM [inhibitor, partial curve, poor fit] |  |  |

| Compound | Potency | activity change, negative = cytotoxicity | outcome |
| --- | --- | --- | --- |
| CS(=O)(=O)N1CCCN(Cc2cn[nH]c2C(=O)O)CC1 |  |  | inactive |
| CN1CC(=O)N(C2CCCNCC2)Cc2c1ncnc2N1CCC(N2CCCC2)CC1 (configuration not stated) |  | inactive: 1.48% |  |
| N#Cc1ccc(CN2CC(Oc3ccc(F)c(F)c3)C2)cc1 | inconclusive: 126 µM [inhibitor, single point] |  |  |
| O=C1CCN(C(=O)CCCc2ccccc2)CCCCCCN1 |  |  | inactive |
| COc1ccc(-c2cc(C(=O)NCC(F)(F)F)c3c(C4CCNC4)nn(C)c3n2)cc1 (configuration not stated) | active: 79.4 µM |  |  |
| O=C1CCN(C(=O)c2cccnc2)CCCC(C(=O)NCCCc2ccccc2)CCN1 (configuration not stated) |  | inactive: -1.13% |  |
| CSc1ccc(-c2cccc(C(=O)NCCNC(=O)c3ccc(F)cc3)c2)cc1 | inconclusive: 10 µM [inhibitor, full curve, poor fit] |  |  |
| O=C(Nc1cccc(Cl)c1)c1cnc2c(c1)N(Cc1ccccc1)CCC2 | inconclusive: 70.8 µM [inhibitor, partial curve, poor fit] |  |  |
| Fc1ccc(Cc2nc3nccc(-c4ccncc4)n3n2)cc1 |  | inactive: -6.94% |  |
| COCCN1C(=O)CS(=O)(=O)C12CCN(C(=O)Cc1cccc(OC)c1)CC2 | inconclusive: 89.1 µM [inhibitor, single point] |  |  |
| COc1cc(NC(=O)c2ccc3c(c2)N(C)C2CCCCN2C3=O)cc(OC)c1OC (configuration not stated) | inconclusive: 50.1 µM [inhibitor, partial curve, poor fit] |  |  |
| CN(C)Cc1nnc(C2CC(NC(=O)c3cc(-c4cccn4C)n[nH]3)C2)n1C (configuration not stated) |  | inactive: -2.07% |  |
| Cc1ccc(-c2cnc([C@@H]3COCCN3Cc3ccncc3)[nH]2)cc1 |  | inactive: -5.88% [at 172 µM] |  |
| COc1ccc(-c2cc(N3CCN(C(=O)c4ccccc4F)CC3)n[nH]2)cc1 | inconclusive: 56.2 µM [inhibitor, partial curve, poor fit] |  |  |
| O=C(Nc1cccc(Br)c1)N1CCC2(CC1)SCC(=O)N2Cc1ccco1 | active: 28.2 µM |  |  |
| CN1CCN(c2ccc(-c3cc4c(ccn4C)c(C(=O)NCC4CCOCC4)n3)cc2)CC1 | inconclusive: 50.1 µM [inhibitor, partial curve, poor fit] |  |  |
| O=C1CC2(CCN([S+](=O)([O-])c3cccc(C(F)(F)F)c3)CC2)Oc2ccccc21 | inconclusive: 50.1 µM [inhibitor, partial curve, poor fit] |  |  |
| CCN1C[C@H]2COc3ccccc3[C@H]2N(C(=O)c2ccccc2OC)CCC1=O | inconclusive: 89.1 µM [inhibitor, single point] |  |  |
| c1ccc(-c2nnc3n2CCN(CC2CC2)C3)cc1 |  |  | inactive [at 172 µM] |
| COc1cccc([S+](=O)([O-])N2CCC3(CC2)CC(=O)c2ccccc2O3)c1 | inconclusive: 89.1 µM [inhibitor, partial curve, poor fit] |  |  |
